Results as given in PubChem BioAssay AID504466 (National Center for Advancing Translational Sciences (NCATS), 2011).
In all, about 330,000 compounds went through this assay and about 4,200 (1.3%) were called active. The inconclusive results got no clear call from the source; some entries with a clear call stand among them for comparison. Calls come from the whole dose curve; as a rule, active = well fitted activation curve with a large enough effect; inconclusive = small, poorly fitted or top-dose-only effect; inactive = no such curve, though single readings can be large or run the other way. Where the call is inconclusive, the potency comes from a doubtful curve fit.

Assay: qHTS screen for small molecules that induce genotoxicity in human embryonic kidney (HEK293T) cells expressing luciferase-tagged ELG1; note: nearly all actives have a fitted effect of over 60% in size; for activity change, positive = activation: % of control where 0% means no effect
Conditions: HEK293T ELG1-luciferase reporter, luminescence, 16 h; series mostly up to 46 µM; activity change, positive = activation: at the top concentration
Method in brief: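 ELG1-luciferase HEK293T cells, 2,000/well; compound pinned in; 16 hr, 37 °C, 5% CO2; ONE-Glo, 30 min RT; luminescence on CCD imager.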
Potency is the fitted concentration of half-maximal effect; tags give direction and shape of the fitted curve.

Compound | Potency | activity change, positive = activation
Cn1cc(SCC(=O)N2CCOCC2)c2ccccc21 | inconclusive: 18.4 µM [activator, partial curve, poor fit] | –
N/C(Cc1cccs1)=N\OC(=O)COc1ccc(Cl)cc1Cl | active: 16.4 µM | –
C/C(=N\NC(=O)c1ccccc1)c1ccc(N2CCCCC2)cc1 | inconclusive: 23.1 µM [activator, partial curve, poor fit] | –
Cc1nc2c(C(=O)N3CCCCC3)cnn2c(C)c1Cc1ccccc1F | inconclusive: 3.26 µM [activator, full curve, poor fit] | –
Clc1nc2ccccc2cc1/C=N/Nc1nc2ccccc2[nH]1 | inconclusive: 2.59 µM [activator, full curve] | –
CCc1nnc(NC(=O)C23CC4CC(CC(C4)C2)C3)s1 | inconclusive: 13 µM [activator, partial curve] | –
O=C(CCc1ccccc1)c1ccc2c(c1)OCCCO2 | active: 4.11 µM | –
C/C(N)=C(/C#N)C(=O)CSc1nnc(Nc2cccc(C)c2)s1 | inconclusive: 23.1 µM [activator, partial curve, poor fit] | –
CN(Cc1ccccc1)C(=O)COc1ccc(C(C)(C)C)cc1 | – | inactive: 5.8%
Cc1cc(NC(=O)c2cncc(Br)c2)ccc1NC(=O)c1cc2ccccc2o1 | inconclusive: 7.3 µM [activator, partial curve, poor fit] | –
C/C(=N/NC(=O)c1ccncc1)c1ccccc1 | – | inactive: 14.8%
O=C(COc1ccc(C(=O)O)cc1)Nc1cccc(C(F)(F)F)c1 | – | inactive: 2.63%
c1ccc2oc(SCc3cn4ccccc4n3)nc2c1 | active: 4.61 µM | –
COc1ccc(F)cc1S(=O)(=O)Nc1cc2c3c(c1)CC(=O)N3CCC2 | inconclusive: 20.6 µM [activator, partial curve, poor fit] | –
CCOC(=O)C1(Cc2cccc(Cl)c2)CCCN(C(=O)c2ccc(COC)s2)C1 (stereo not drawn) | – | inactive: -4.08%
O=C(C1=C[C@@H](c2ccc3c(c2)OCO3)C[C@@H](OCCCCO)O1)N1CCN(Cc2ccc3c(c2)OCO3)CC1 | – | inactive: -9.02%
O=C(N/N=C/c1ccccc1)c1ccco1 | inconclusive: 18.3 µM [activator, partial curve] | –
c1ccn2c(c1)nc1c2nc2ccccn21 | inconclusive: 16.4 µM [activator, partial curve] | –
N/C(=N\OC(=O)Cc1ccccc1[N+](=O)[O-])c1ccccn1 | inconclusive: 23.1 µM [activator, single point] | –

Compound | Potency | activity change, positive = activation
CCn1ccc(C(=O)N2CCN(c3ncccn3)CC2)n1 | – | inactive: 2.31%
Cc1ccc(C(=O)Nc2nc3ccccc3c(=O)s2)cc1 | inconclusive: 2.06 µM [activator, full curve] | –
CCOc1ccc(C2Nc3ccc4ccccc4c3-c3c2c(=O)oc2ccccc32)cc1 (stereo not drawn) | inconclusive: 20.6 µM [activator, partial curve] | –
CC(=O)Nc1ccc(OCC(O)Cn2ccnc2)cc1 (stereo not drawn) | inconclusive: 29.1 µM [activator, partial curve, poor fit] | –
O=C(NCC1COc2ccccc2O1)c1ccc(Cl)cc1 (stereo not drawn) | active: 11.6 µM | –
CCC(=O)c1cc(F)c(N2CCN(C(=O)c3ccco3)CC2)cc1C | inconclusive: 29.1 µM [activator, single point] | –
COc1ccc(NC(=O)Nc2cnccn2)c(OC)c1 | inconclusive: 32.6 µM [activator, partial curve, poor fit] | –
COc1ccc(OCC(=O)Nc2ccc(NC(=O)c3ccco3)cc2)cc1 | inconclusive: 12.6 µM [activator, partial curve] | –
Cc1cc(C)c(-c2nc3ccccc3s2)[nH]1 | inconclusive: 13 µM [activator, partial curve] | –
Cc1cc(C)nc(N/N=C/c2ccccc2Cl)n1 | – | inactive: 14.5%
Cc1nc2c3ccccc3nc(SCC(=O)N3CC(C)CC(C)C3)n2n1 (stereo not drawn) | inconclusive: 4.11 µM [activator, partial curve, poor fit] | –
Cc1ccc(/C=C/C(=O)c2c(C)nc3ccccn23)cc1 | – | inactive: 15.6%
CCOC(=O)c1c(NC(=O)COC(=O)c2nc(Cl)ccc2Cl)sc2c1CCC2 | inconclusive: 18.4 µM [activator, single point] | –
CC(C)(C)NC(=O)C(Cc1ccccc1)NS(=O)(=O)c1cccc2nsnc12 (stereo not drawn) | – | inactive: -4.03%
CCc1ccc(CNC(=O)Cc2ccc(NC(=O)C3=C(C)OCCS3)cc2)cc1 | inconclusive: 8.2 µM [activator, partial curve] | –
Cc1cccc(NC(=O)Nc2ccc3c(c2)CCC3)c1 | inconclusive: 10.3 µM [activator, partial curve] | –
C=CCn1c(C)cc(C(=O)CSc2nnc(NCc3ccccc3)s2)c1C | – | inactive: 13.5%
CC(C)C(=O)Nc1nc2c(c(=O)[nH]1)CCCC2 | – | inactive: -0.147%
Cc1cc(NC(=O)C(C)SCC(=O)N(C)Cc2ccccc2F)no1 (stereo not drawn) | – | inactive: -0.0085%
